Measurements: PubChem BioAssay AID1030 (National Center for Advancing Translational Sciences (NCATS), 2008)
Where “and” joins values, the source holds several entries; their conditions need not be identical. Identical values can stand only once. The campaign covered roughly 220,000 compounds. About 16,000 (7.3%) were called active. The shares of active, inactive and inconclusive entries below differ from those in the screen. Calls come from the whole dose curve; as a rule, active = well fitted inhibition curve with a large enough effect (not every such curve was filed as active); inconclusive = small, poorly fitted or top-dose-only effect, or another doubt; inactive = no such curve, though single readings can be large or run the other way. Where the call is inconclusive, the potency comes from a doubtful curve fit. Some compounds were tested as several samples or in several runs, with calls that do not always agree.
Potency is the fitted concentration of half-maximal effect; tags give direction and shape of the fitted curve.
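Throughout, for activity, negative = inhibition: plate controls were no enzyme wells and a reference inhibitor.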

What follows are compounds tested against Aldehyde dehydrogenase 1A1 (Homo sapiens) (UniProt P00352) (assay: qHTS Assay for Inhibitors of Aldehyde Dehydrogenase 1 (ALDH1A1)). Conditions: Purified ALDH1A1, NADH fluorescence, propionaldehyde substrate; series mostly up to 75.3 µM; activity, negative = inhibition: at the top concentration.
Sequence of UniProt P00352 (P00352 whole entry, looked up): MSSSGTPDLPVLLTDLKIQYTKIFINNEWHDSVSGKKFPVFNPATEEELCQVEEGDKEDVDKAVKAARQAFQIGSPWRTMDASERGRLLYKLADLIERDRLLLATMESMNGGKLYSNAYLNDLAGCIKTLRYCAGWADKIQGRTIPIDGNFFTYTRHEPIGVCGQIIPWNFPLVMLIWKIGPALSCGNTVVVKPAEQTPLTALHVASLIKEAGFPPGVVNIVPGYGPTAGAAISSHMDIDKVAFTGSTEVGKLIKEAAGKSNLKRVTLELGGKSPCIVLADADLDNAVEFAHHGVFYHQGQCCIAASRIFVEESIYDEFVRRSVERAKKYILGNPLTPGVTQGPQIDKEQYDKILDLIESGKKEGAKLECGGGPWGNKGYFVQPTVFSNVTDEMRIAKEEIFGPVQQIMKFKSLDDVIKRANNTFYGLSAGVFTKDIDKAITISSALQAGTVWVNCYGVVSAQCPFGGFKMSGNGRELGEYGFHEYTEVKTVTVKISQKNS
In the case of O=C1c2ccccc2C(=O)c2c(O)c(O)cc(O)c21, the Potency is reported as inconclusive: 7.08 µM [inhibitor, full curve] and inconclusive: 25.1 µM [inhibitor, single point].
Oc1ccc(N2CCN(c3ncnc4sc(-c5ccccc5)cc34)CC2)cc1 was tested, and the Potency was active: 25.1 µM.
For COCCN(C(=O)C(F)(F)F)C(C(=O)NC1CCCCC1)c1ccco1 (configuration not stated), the Potency was active: 4.74 µM.
With CCn1c(CNC(=O)Cc2ccc(OC)cc2)nnc1SCC(=O)c1ccc(Br)cc1 the Potency was inconclusive: 31.6 µM [inhibitor, single point].
For CCN1/C(=C/c2ccc3cc(C)ccc3[n+]2CC)Sc2cc(C)ccc21, the Potency was inconclusive: 17.8 µM [inhibitor, partial curve, poor fit].
For C[C@@H](C(=O)N1CCNCC1)n1cc(CCC(=O)O)nn1, the “activity, negative = inhibition” value was inactive: 0.0753%.
COc1ccc(OC)c(NC(=S)N(CCc2c(C)[nH]c3ccccc23)Cc2cccs2)c1 was tested, and the Potency was inconclusive: 11.2 µM [inhibitor, partial curve, poor fit].
For CC1CCN(C(=O)C2CCN(C(=O)c3cc4sccc4n3Cc3ccc(F)cc3)CC2)CC1, the Potency was active: 14.1 µM.
In the case of CCOC(=O)c1ccc(NC(=O)c2ccc(C)c(S(=O)(=O)N3CCOCC3)c2)cc1, the Potency is reported as inconclusive: 39.8 µM [inhibitor, single point].
For Cn1c(C(O)C(O)c2ccccc2)nc2ccccc21 (configuration not stated), the “activity, negative = inhibition” value was inactive: 11.2%.
With CN(C)c1oc(-c2ccccc2[N+](=O)[O-])nc1C#N the Potency was active: 10 µM.
O=C(CCn1c(=O)[nH]c2ccsc2c1=O)N1CCc2ccccc2C1 was tested, and the Potency was inconclusive: 39.8 µM [inhibitor, single point].
COc1ccc(S(=O)(=O)N2CCOCC2)cc1NC(=O)CSc1n[nH]c(C(C)C)n1 was tested, and the Potency was active: 25.1 µM.
In the case of O=S(=O)(c1ccccc1)N1CN2CN(C1)CN(S(=O)(=O)c1ccccc1)C2, the activity, negative = inhibition is reported as inactive: -1.76% [at 13.5 µM].
For O=C(OC(C(=O)NC1CCCCC1)c1ccccc1)c1ccco1 (configuration not stated), the Potency was inconclusive: 17.8 µM [inhibitor, partial curve].
With O=C(Nc1ccc2c(c1)nc1n2CCSC1)c1ccco1 the Potency was inconclusive: 7.08 µM [inhibitor, partial curve].
For CCCOC(=O)c1ccc(O)cc1, the Potency was active: 10 µM.
For O=c1[nH]ncc(N2CCN(C(c3ccccc3)c3ccccc3)CC2)c1Cl, the Potency was inconclusive: 39.8 µM [inhibitor, single point].
In the case of O=C(NCc1ccncc1)C1CCCN(S(=O)(=O)Cc2ccccc2)C1 (configuration not stated), the Potency is reported as inconclusive: 39.8 µM [inhibitor, single point].
For Cc1ccc(C)c(-n2c(-c3csc(C)c3)n[nH]c2=S)c1, the Potency was inconclusive: 25.1 µM [inhibitor, single point].
C=CCN1C(=O)C(Cc2ccc(F)cc2)S/C1=N/N=C/c1ccco1 (configuration not stated) was tested, and the Potency was inconclusive: 11.2 µM [inhibitor, partial curve].
For CC(C)OC(=O)c1cc2ccccc2oc1=O, the Potency was inconclusive: 20 µM [inhibitor, single point].
Cc1ccccc1NC(=O)C1CC(=O)N(Cc2ccccc2)C1 (configuration not stated) was tested, and the “activity, negative = inhibition” value was inactive: 1.4%.
COc1ccc(S(=O)(=O)N2CCCCCC2)cc1NC(=O)c1c2c(nc3ccccc13)CCN(Cc1ccccc1)C2 was tested, and the Potency was inconclusive: 39.8 µM [inhibitor, single point].
For O=C(O)CCC(=O)NCCn1c(-c2ccccc2)csc1=Nc1ccccc1, the Potency was inconclusive: 37.7 µM [inhibitor, single point].
Cc1ccc2cc(C#N)c(NCCNC(=O)C3CC3)nc2c1C was tested, and the Potency was inconclusive: 31.6 µM [inhibitor, single point].
In the case of CCCc1[nH]c(=O)c(C#N)c2c1CCCC2, the Potency is reported as inconclusive: 35.5 µM [inhibitor, single point].
With O=c1oc2cc(O)ccc2cc1-c1ccc(F)cc1 the Potency was inconclusive: 3.98 µM [inhibitor, full curve].
C=CCOC(=O)C1=C(C)NC(C)=C(C(=O)OCC=C)C1c1cccs1 was tested, and the Potency was inconclusive: 37.7 µM [inhibitor, single point].
For O=C(CN(CCN1CCOCC1)C(=O)Cn1nnc(-c2ccc(F)cc2)n1)NC1CCCCC1, the Potency was inconclusive: 20 µM [inhibitor, single point].
For O=S(=O)(Nc1ccc(-c2nc3cccnc3s2)cc1)c1cccs1, the Potency was inconclusive: 28.2 µM [inhibitor, partial curve].
For O=C1NC(=S)SC1=C1CCCC1, the Potency was inconclusive: 39.8 µM [inhibitor, single point].
With Cc1cccc(NC(=O)CSc2nnc(NC(=O)c3ccco3)s2)c1 the “activity, negative = inhibition” value was inactive: -160%.
N=C(N)SCc1nc2ccccc2c(=O)n1-c1ccccc1 was tested, and the Potency was inconclusive: 28.2 µM [inhibitor, single point] and inconclusive: 25.1 µM [inhibitor, partial curve].
CCOC(=O)c1cnc2ccc(OC)cc2c1Nc1ccc2c(c1)OCCO2 was tested, and the Potency was inconclusive: 35.5 µM [inhibitor, single point].
CC1(C)CC(=O)C(N=Nc2ccc(OC(F)F)cc2)=C(O)C1 was tested, and the Potency was active: 1.41 µM.
In the case of O=C(NCc1ccc(Cl)cc1)c1cnn2ccccc12, the Potency is reported as inconclusive: 31.6 µM [inhibitor, partial curve].
In the case of O=C(Nc1cccnc1)c1sc(Nc2ccccc2F)nc1-c1ccccc1, the Potency is reported as inconclusive: 3.55 µM [inhibitor, single point].
For O=C(Nc1nc(=O)c2ccccc2s1)c1ccc(Cl)cc1, the Potency was inconclusive: 22.4 µM [inhibitor, partial curve].
For CCCC1C2CN(C(C)=O)CC=C2C(C#N)=C(N)C1(C#N)C#N (configuration not stated), the Potency was inconclusive: 39.8 µM [inhibitor, single point].
For O=C(Nc1ccc(S(=O)(=O)Nc2nccs2)cc1)c1cc(-c2ccccc2)nc2ccccc12, the Potency was inconclusive: 22.4 µM [inhibitor, partial curve].
O=C(NCCCN1CCCCCC1)[C@@H](c1ccccc1)C1CCCCC1 was tested, and the “activity, negative = inhibition” value was inactive: 3.63%.
With Cc1ccccc1OCC(=O)OCC(=O)NCc1cccs1 the “activity, negative = inhibition” value was inactive: -2.57%.
In the case of CCOC(=O)N1CCN(C(=O)c2ccccc2N(Cc2ccccc2)S(=O)(=O)c2ccc(OC)cc2)CC1, the “activity, negative = inhibition” value is reported as inactive: 3.86%.
For Cn1ncc(N=Cc2c(O)ccc3ccccc23)c1C(=O)Nc1cccc(Cl)c1, the “activity, negative = inhibition” value was inactive: -5.14%.
For NC(=S)N/N=C/c1ccccc1OCCSc1ccc(Cl)cc1, the “activity, negative = inhibition” value was inactive: -6.06%.
Cc1ccc(S(=O)(=O)c2nc(S(C)(=O)=O)sc2N(C)C)cc1 was tested, and the “activity, negative = inhibition” value was inactive: -13.5%.
O=C(Nc1ccccc1C(=O)N/N=C/c1ccncc1)c1ccccc1 was tested, and the “activity, negative = inhibition” value was inactive: -0.0256%.
CCNc1ncc2nc(-c3ccc(F)cc3)c(=O)n(C)c2n1 was tested, and the Potency was inconclusive: 4.47 µM [inhibitor, partial curve].
For CCOC(=O)c1ccc(NC(=S)NCCCn2ccnc2)cc1, the Potency was inconclusive: 39.8 µM [inhibitor, single point].
With CCN1CCN(c2ccc(NC(=O)CCc3c(C)nc4c(-c5ccccc5)c(C)nn4c3C)cc2)CC1 the Potency was inconclusive: 39.8 µM [inhibitor, single point].
C=CCn1c(=O)c2c(nc(-c3ccccc3)n2C)n(C)c1=O was tested, and the Potency was inconclusive: 17.8 µM [inhibitor, partial curve].
For CCC(CC(C)(C)O)C(=O)NNC(=S)Nc1ccccc1 (configuration not stated), the Potency was active: 25.1 µM.
In the case of CC(C)CC(=O)NCc1ccc2[nH]c3c(c2c1)CCCC3, the Potency is reported as inconclusive: 14.1 µM [inhibitor, partial curve].
With Cc1cnc(CNc2ncnc3ccc(-c4ccc(N(C)C)cc4)cc23)cn1 the “activity, negative = inhibition” value was inactive: -11.2%.
In the case of CC1(C)Cc2c(c(-c3ccccc3)[nH]c(=O)c2C#N)CO1, the Potency is reported as inconclusive: 17.8 µM [inhibitor, partial curve].
In the case of Cc1cc(Br)ccc1OCC(=O)NNC(=O)C(=O)Nc1ccccc1, the “activity, negative = inhibition” value is reported as inactive: 14.6%.
In the case of Cc1ccc(N2C(=O)CC(N3CCN(C)CC3)C2=O)cc1 (configuration not stated), the “activity, negative = inhibition” value is reported as inactive: 0.455%.
For Cc1ccccc1-c1nc(N(C)C)c2ccccc2n1, the “activity, negative = inhibition” value was inactive: 6.57%.
For NC(=O)c1c(NC(=O)CSc2nnc(-c3ccccc3)n2CC2CCCO2)sc2c1CCC2 (configuration not stated), the Potency was active: 28.2 µM.
For CCOc1ccsc1C(=O)OC, the “activity, negative = inhibition” value was inactive: 0.304%.
CC1Cc2ccccc2N1C(=O)COC(=O)c1ccc(S(=O)(=O)N(C)C)cc1 (configuration not stated) was tested, and the Potency was inconclusive: 28.2 µM [inhibitor, single point].
With COc1cc(CN2CCN(c3ccccc3C)CC2)cc([N+](=O)[O-])c1O the Potency was inconclusive: 25.1 µM [inhibitor, single point].
For O=S(=O)(Nc1ccncc1Cl)c1ccccc1, the “activity, negative = inhibition” value was inactive: 9.96%.
With COCc1cc(C)nc(N2CCOCC2)c1C#N the Potency was inconclusive: 28.2 µM [inhibitor, partial curve].
COc1cc(OC)cc(-c2cc3nc(C)c(CCC(=O)NC(C)CCc4ccco4)c(C)n3n2)c1 (configuration not stated) was tested, and the Potency was inconclusive: 39.8 µM [inhibitor, single point].
With N=c1c2c(n(Cc3ccc(Cl)cc3)c3c1CCC3)CCC2 the “activity, negative = inhibition” value was inactive: -3.27%.
For CNC(=O)CSc1nnc(-c2ccncc2)n1Cc1ccccc1, the “activity, negative = inhibition” value was inactive: 2.38%.
CCC(c1nnnn1CCc1ccccc1)N1CCN(C(=O)c2ccco2)CC1 (configuration not stated) was tested, and the Potency was inconclusive: 39.8 µM [inhibitor, single point].
For Cc1noc(C)c1COc1ccc(C(=O)OCC(=O)NC2CCCCC2C)cc1 (configuration not stated), the Potency was inconclusive: 35.5 µM [inhibitor, single point].
With COc1ccc(CNc2nc(-c3cccc(C#N)c3)nc3ccccc23)c(OC)c1 the Potency was inconclusive: 39.8 µM [inhibitor, single point].
O=C(Cc1ccc(Cl)cc1)NCc1nc(-c2ccccc2)no1 was tested, and the Potency was inconclusive: 12.6 µM [inhibitor, partial curve].
